The supplement of paper PMC12423691
The list shows a part of the results. Binding of human transcription factors and regulators to the viral nucleoprotein by AlphaScreen, crude cell-free proteins, amounts not normalised, one pass. Fold of the Venus control; higher = more signal. No active / inactive call. Single-pass screen; sequences are the whole Swiss-Prot entries looked up by name.

B1: STAT4, Q14765 (protein)
chain: MSQWNQVQQLEIKFLEQVDQFYDDNFPMEIRHLLAQWIENQDWEAASNNETMATILLQNLLIQLDEQLGRVSKEKNLLLIHNLKRIRKVLQGKFHGNPMHVAVVISNCLREERRILAAANMPVQGPLEKSLQSSSVSERQRNVEHKVAAIKNSVQMTEQDTKYLEDLQDEFDYRYKTIQTMDQSDKNSAMVNQEVLTLQEMLNSLDFKRKEALSKMTQIIHETDLLMNTMLIEELQDWKRRQQIACIGGPLHNGLDQLQNCFTLLAESLFQLRRQLEKLEEQSTKMTYEGDPIPMQRTHMLERVTFLIYNLFKNSFVVERQPCMPTHPQRPLVLKTLIQFTVKLRLLIKLPELNYQVKVKASIDKNVSTLSNRRFVLCGTNVKAMSIEESSNGSLSVEFRHLQPKEMKSSAGGKGNEGCHMVTEELHSITFETQICLYGLTIDLETSSLPVVMISNVSQLPNAWASIIWYNVSTNDSQNLVFFNNPPPATLSQLLEVMSWQFSSYVGRGLNSDQLHMLAEKLTVQSSYSDGHLTWAKFCKEHLPGKSFTFWTWLEAILDLIKKHILPLWIDGYVMGFVSKEKERLLLKDKMPGTFLLRFSESHLGGITFTWVDHSESGEVRFHSVEPYNKGRLSALPFADILRDYKVIMAENIPENPLKYLYPDIPKDKAFGKHYSSQPCEVSRPTERGDKGYVPSVFIPISTIRSDSTEPHSPSDLLPMSPSVYAVLRENLSPTTIETAMKSPYSAE
B2: PCGF2, P35227 (protein)
chain: MHRTTRIKITELNPHLMCALCGGYFIDATTIVECLHSFCKTCIVRYLETNKYCPMCDVQVHKTRPLLSIRSDKTLQDIVYKLVPGLFKDEMKRRRDFYAAYPLTEVPNGSNEDRGEVLEQEKGALSDDEIVSLSIEFYEGARDRDEKKGPLENGDGDKEKTGVRFLRCPAAMTVMHLAKFLRNKMDVPSKYKVEVLYEDEPLKEYYTLMDIAYIYPWRRNGPLPLKYRVQPACKRLTLATVPTPSEGTNTSGASECESVSDKAPSPATLPATSSSLPSPATPSHGSPSSHGPPATHPTSPTPPSTASGATTAANGGSLNCLQTPSSTSRGRKMTVNGAPVPPLT
B3: TAF7, Q15545 (protein)
chain: MSKSKDDAPHELESQFILRLPPEYASTVRRAVQSGHVNLKDRLTIELHPDGRHGIVRVDRVPLASKLVDLPCVMESLKTIDKKTFYKTADICQMLVSTVDGDLYPPVEEPVASTDPKASKKKDKDKEKKFIWNHGITLPLKNVRKRRFRKTAKKKYIESPDVEKEVKRLLSTDAEAVSTRWEIIAEDETKEAENQGLDISSPGMSGHRQGHDSLEHDELREIFNDLSSSSEDEDETQHQDEEDINIIDTEEDLERQLQDKLNESDEQHQENEGTNQLVMGIQKQIDNMKGKLQETQDRAKRQEDLIMKVENLALKNRFQAVLDELKQKEDREKEQLSSLQEELESLLEK
B4: DNAJA3, Q96EY1 (protein)
chain: MAARCSTRWLLVVVGTPRLPAISGRGARPPREGVVGAWLSRKLSVPAFASSLTSCGPRALLTLRPGVSLTGTKHNPFICTASFHTSAPLAKEDYYQILGVPRNASQKEIKKAYYQLAKKYHPDTNKDDPKAKEKFSQLAEAYEVLSDEVKRKQYDAYGSAGFDPGASGSQHSYWKGGPTVDPEELFRKIFGEFSSSSFGDFQTVFDQPQEYFMELTFNQAAKGVNKEFTVNIMDTCERCNGKGNEPGTKVQHCHYCGGSGMETINTGPFVMRSTCRRCGGRGSIIISPCVVCRGAGQAKQKKRVMIPVPAGVEDGQTVRMPVGKREIFITFRVQKSPVFRRDGADIHSDLFISIAQALLGGTARAQGLYETINVTIPPGTQTDQKIRMGGKGIPRINSYGYGDHYIHIKIRVPKRLTSRQQSLILSYAEDETDVEGTVNGVTLTSSGGSTMDSSAGSKARREAGEDEEGFLSKLKKMFTS
B5: ZNF75D, P51815 (protein)
chain: MAMRELNADSCSSPQMGAMWETSGSVKENSSQSKKYSTKIENLGPESACRHFWSFRYHEATGPLETISQLQKLCHQWLRPEIHSKEQILEMLVLEQFLSILPKETQNWVQKHHPQNVKQALVLVEFLQREPDGTKNEVTAHELGKEAVLLGGTAVAPGFKWKPAEPQPMGVFQKEYWNTYRVLQEQLGWNTHKETQPVYERAVHDQQMLALSEQKRIKHWKMASKLILPESLSLLTFEDVAVYFSEEEWQLLNPLEKTLYNDVMQDIYETVISLGLKLKNDTGNDHPISVSTSEIQTSGCEVSKKTRMKIAQKTMGRENPGDTHSVQKWHRAFPRKKRKKPATCKQELPKLMDLHGKGPTGEKPFKCQECGKSFRVSSDLIKHHRIHTGEKPYKCQQCDRRFRWSSDLNKHFMTHQGIKPYRCSWCGKSFSHNTNLHTHQRIHTGEKPFKCDECGKRFIQNSHLIKHQRTHTGEQPYTCSLCKRNFSRRSSLLRHQKLHRRREACLVSPN
B6: IRF9, Q00978 (protein)
chain: MASGRARCTRKLRNWVVEQVESGQFPGVCWDDTAKTMFRIPWKHAGKQDFREDQDAAFFKAWAIFKGKYKEGDTGGPAVWKTRLRCALNKSSEFKEVPERGRMDVAEPYKVYQLLPPGIVSGQPGTQKVPSKRQHSSVSSERKEEEDAMQNCTLSPSVLQDSLNNEEEGASGGAVHSDIGSSSSSSSPEPQEVTDTTEAPFQGDQRSLEFLLPPEPDYSLLLTFIYNGRVVGEAQVQSLDCRLVAEPSGSESSMEQVLFPKPGPLEPTQRLLSQLERGILVASNPRGLFVQRLCPIPISWNAPQAPPGPGPHLLPSNECVELFRTAYFCRDLVRYFQGLGPPPKFQVTLNFWEESHGSSHTPQNLITVKMEQAFARYLLEQTPEQQAAILSLV
B7: CHP1, Q99653 (protein)
chain: MGSRASTLLRDEELEEIKKETGFSHSQITRLYSRFTSLDKGENGTLSREDFQRIPELAINPLGDRIINAFFPEGEDQVNFRGFMRTLAHFRPIEDNEKSKDVNGPEPLNSRSNKLHFAFRLYDLDKDEKISRDELLQVLRMMVGVNISDEQLGSIADRTIQEADQDGDSAISFTEFVKVLEKVDVEQKMSIRFLH

target: nucleoprotein N of Crimean-Congo hemorrhagic fever virus; assay: AlphaScreen luminescence signal relative to Venus negative control (fold); higher = stronger binding to CCHFV N
Method: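 AlphaScreen binding of cell-free made, FLAG-GST-tagged human transcription factors and regulators (crude translation products) to biotinylated N protein; signal as fold of the FLAG-GST-Venus control. One pass.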

Binder | AlphaScreen luminescence signal
B1 | 2.47
B2 | 1.4
B3 | 1.86
B4 | 2.37
B5 | 3.72
B6 | 2.42
B7 | 1.91
